# Assay results taken from PubChem BioAssay AID1345082 (National Center for Advancing Translational Sciences (NCATS), 2018).
# About 4,000 (4.3%) of roughly 94,000 compounds were called active. Inconclusive means that the source gave no clear call. Such entries were picked first, then a sample of the others. Calls come from the whole dose curve; as a rule, active = well fitted inhibition curve with a large enough effect; inconclusive = small, poorly fitted or top-dose-only effect; inactive = no such curve, though single readings can be large or run the other way. Potencies of inconclusive entries are doubtful fits and often do not repeat.
# Assay: Cytotoxic Profiling in NIH 3T3 Cell Line of Diverse Libraries Using Quantitative High-Throughput Screening; note: nearly all actives have a fitted effect of over 55% in size
# Conditions: NIH 3T3 viability, CellTiter-Glo ATP luminescence, 48-72 h; series mostly up to 96.7 µM
# Outline: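 NIH 3T3 cells at 400 cells/well received 23 nL of compound by pintool and were incubated 48 or 72 h at 37 °C. Viability was read as ATP-coupled CellTiter-Glo luminescence.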
# Potency is the fitted concentration of half-maximal effect; tags give direction and shape of the fitted curve.
row,Compound,Potency
1,COc1ccc(S(=O)(=O)N2CCc3c(C(=O)NCc4ccncc4)cccc32)cc1,"inconclusive: 35.5 µM [inhibitor, partial curve, poor fit]"
2,Cc1oc2c(c1C(=O)NC1CCCC1)CN(Cc1ccc(F)cc1)CC2,inactive
3,C[C@H]1[C@@H]2[C@H]3OC(=O)[C@@H](C)[C@@H]3CC[C@@]2(C)CC[C@@H]1NC(=O)c1cncnc1,inactive
4,Cc1ccccc1S(=O)(=O)N1CCCC(CCC(=O)Nc2ccc(F)cc2F)C1 (stereo not drawn),"inconclusive: 25.1 µM [inhibitor, partial curve]"
5,Cc1nn(-c2ccc(F)cc2)c(Oc2cccc(F)c2)c1CCC(=O)N1CCSCC1,"inconclusive: 44.7 µM [inhibitor, partial curve, poor fit]"
6,COc1ccc(-c2cc(C[C@H]3CNCC[C@H]3CC(=O)NCc3cccs3)no2)cc1,active: 89.1 µM
7,Cc1ccccc1NC(=O)N1C[C@@H](F)C[C@H]1C(=O)N1CCc2ccccc2C1,inactive
8,CCc1ccc(CNC(=O)c2ccc3c(c2)N(CC)C2CCCCN2C3=O)cc1 (stereo not drawn),"inconclusive: 70.8 µM [inhibitor, single point]"
9,O=C(c1ccc2c(c1)OCO2)N1CCn2c(nn(-c3cccc(Cl)c3)c2=O)C1,"inconclusive: 50.1 µM [inhibitor, partial curve, poor fit]"
10,Cc1cnc(C(=O)N2CCC(N3C(=O)C4(CCCC4)C3c3ccccc3)CC2)cn1 (stereo not drawn),inactive
11,CN1[C@@H](CCC(=O)N2CCN(c3ccccc3)CC2)CNC(=O)[C@@H]2[C@H]1CCN2Cc1ccccc1,"inconclusive: 70.8 µM [inhibitor, partial curve]"
12,CC(C)c1ccc(NC(=O)O[C@@H]2CO[C@H]3[C@@H]2OC[C@@H]3NC(=O)Nc2cccc(C#N)c2)cc1,"inconclusive: 44.7 µM [inhibitor, partial curve]"
13,C#CCNC(=O)c1cc(-c2cnccc2Cl)c2cccn2n1,"inconclusive: 22.4 µM [inhibitor, full curve]"
14,N#Cc1ccc(CN2CCC3(COc4ccccc4C(=O)N3)C2)cc1 (stereo not drawn),active: 31.6 µM
15,Cc1ccc(CN2C[C@H]3CN(Cc4ccc(OC(F)(F)F)cc4)CCN3C2=O)cc1,active: 50.1 µM
16,COc1ccc(OCc2nc(C3CN(C(=O)Nc4cccc(F)c4)C3)no2)cc1,"inconclusive: 50.1 µM [inhibitor, partial curve, poor fit]"
17,O=C1CCN(C(=O)CC2C(=O)NCCN2Cc2ccccc2F)CCN1 (stereo not drawn),inactive
18,O=C(c1ccccc1Cl)N1CCn2c(nn(-c3ccncc3)c2=O)C1,"inconclusive: 44.7 µM [inhibitor, partial curve, poor fit]"
